# Test results from PubChem BioAssay AID1347417 (National Center for Advancing Translational Sciences (NCATS), 2020).
# Hit rate of the full screen: of about 120,000 compounds, about 5,300 (4.4%) were called active. Inconclusive means that the source gave no clear call. Such entries were picked first, then a sample of the others. Calls follow the shape of the dose curve; as a rule, active = well fitted inhibition curve with a large enough effect; inconclusive = small, poorly fitted or top-dose-only effect; inactive = no such curve, though single readings can be large or run the other way. Potencies of inconclusive entries are doubtful fits and often do not repeat.
# Test: qHTS Primary assay for Inhibitors of Plasmodium falciparum Dd2 growth in vitro; also: nearly all actives have a fitted effect of over 65% in size;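 as to activity, negative = inhibition: plate controls were DMSO vehicle for no effect and reference drug for full effect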
# Conditions: P. falciparum Dd2 growth, SYBR Green, 72 h; activity, negative = inhibition: at 28.9 µM (top of the series) unless noted; series mostly up to 28.9 µM
# Method in brief: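 Readout: SYBR Green fluorescence, 485 nm excitation, 535 nm emission, after ~16 h lysis at 37C. Before that, Dd2-infected red cells (2.5% hematocrit) grew 72 h with compound, 29 uM top final concentration.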
# Potency is read from the fitted curve at half-maximal effect; tags tell the direction and shape of the fitted curve.
Compound,Potency,outcome,"activity, negative = inhibition"
Cc1ccc(CN2CCc3nc(C(=O)Nc4cccnc4)oc3CC2)o1,"inconclusive: 0.562 µM [inhibitor, full curve]",,
CC(=O)Nc1c(C)nn(-c2ccccc2)c1N1CCC(C(=O)NCc2ccc(F)cc2)CC1,"inconclusive: 17.8 µM [inhibitor, single point]",,
C=C(C)Cn1c(SCC(=O)c2ccccc2)nc2sc3c(c2c1=O)CCCC3,"inconclusive: 10 µM [inhibitor, single point]",,
COc1cccc(C(=O)NC2CCCN(c3cc(-c4ccc(F)cc4)[nH]n3)C2)c1OC (stereo not drawn),,inactive,
O=C(c1ccoc1)N1CCOc2ccc(CN3CCc4ccccc4C3)cc2C1,"inconclusive: 0.0631 µM [inhibitor, full curve, poor fit]",,
CN(CC1CCOCC1)C(=O)c1cccc(Cl)c1,"inconclusive: 1.12 µM [inhibitor, full curve]",,
O=S(=O)(Cc1ccccc1F)N1CCCC(CN2CCOCC2)CC1 (stereo not drawn),"inconclusive: 10 µM [inhibitor, single point]",,
CN(C)CCNC(=O)C1(C)CN(Cc2ccccc2)Cc2ccc(Nc3ccccc3)nc21 (stereo not drawn),"inconclusive: 1 µM [inhibitor, partial curve, poor fit]",,
CC(C)c1ccc(CNC(=O)[C@H]2CCC[C@H]2NC(=O)c2ccncc2)cc1,"inconclusive: 3.98 µM [inhibitor, partial curve, poor fit]",,
Cc1nn(C)c(C)c1CCC(=O)N1C[C@@H](Oc2ccccc2)C[C@H]1C(=O)N1CCCC1,,,inactive: -5.74%
CC1=NS(=O)(=O)N(C)C=C1C(=O)OCc1nc(-c2ccc3c(c2)OCO3)no1,,,inactive: 30.2%
COC(=O)c1cccc(-c2nc(C3CC(=O)N(c4ccc(F)c(Cl)c4)C3)no2)c1 (stereo not drawn),,,inactive: 69%
Oc1cc(-c2nc3ccccc3s2)cc2c1OCCN(Cc1ncccn1)C2,"inconclusive: 10 µM [inhibitor, partial curve, poor fit]",,
Cn1cc(C(=O)NCCc2ccccc2)c(=O)c2cc(S(=O)(=O)N3CCCCC3)ccc21,"inconclusive: 10 µM [inhibitor, partial curve, poor fit]",,
CC(C)(C)OC(=O)N1CCC(c2c(C(=O)N3CCN(Cc4ccccc4)CC3)cnn2-c2ccc(Cl)cc2)CC1,active: 11.2 µM,,
O=C(O)CCCC(=O)N1Cc2ccccc2CC2(CCCN(Cc3ccccc3)C2)C1 (stereo not drawn),,,inactive: -1.89%
COCCCNC(=O)c1cc(C2CC2)nc2c1c(C1CCCN1)nn2-c1ccccc1 (stereo not drawn),"inconclusive: 11.2 µM [inhibitor, single point]",,
COc1ccc(-c2cc(C[C@H]3CNCC[C@H]3CC(=O)NCc3ccccc3OC)no2)cc1,active: 10 µM,,
O=C(CC1COCCN1C(=O)CCn1cccc1)NCc1ccccc1F (stereo not drawn),,,inactive: -18.4%
Cc1ccccc1-c1nccc2c(=O)cc(-c3ccncc3)oc12,,,inactive: -18.5% [at 44.1 µM]
CC(C)(C)NS(=O)(=O)C1CCS(=O)(=O)C1 (stereo not drawn),,,inactive: 0.754%
Clc1cccc(CN2CC(CNc3cccnc3)C3(C2)CN(c2ccccc2)C3)c1 (stereo not drawn),"inconclusive: 1 µM [inhibitor, partial curve, poor fit]",,

Compound,Potency,outcome,"activity, negative = inhibition"
Cc1nc2ccccn2c1C(=O)NC(C)c1cnn(-c2ccccn2)c1C (stereo not drawn),,,inactive: 0.0982%
Cc1ccc(NC(=O)c2oc3ccccc3c2NC(=O)C23CC4CC(CC(C4)C2)C3)cc1,"inconclusive: 10 µM [inhibitor, single point]",,
COc1ccc(-c2cc(N3CCCC(NC(=O)Cc4ccc(OC)c(OC)c4)C3)n[nH]2)cc1 (stereo not drawn),"inconclusive: 2.51 µM [inhibitor, single point]",,
Cn1cccc1CN1CCC2(CC1)COc1ccccc1C(=O)N2,active: 5.62 µM,,
N#Cc1cccc(C(=O)N2CCCCCCNC(=O)CC2c2ccccc2)c1 (stereo not drawn),,,inactive: -28.7%
Cc1ccc(C(=O)NCc2ccccc2)cc1NC(=O)c1nsc2ccccc12,"inconclusive: 17.8 µM [inhibitor, single point]",,
Cn1nc(C2CCN(C(=O)Cc3ccc(Cl)cc3)CC2)[nH]c1=O,,inactive [at 44.1 µM],
Cn1c(CO[C@H]2CN(C(=O)C3CC3)C[C@H]2F)nc2ccccc21,,,inactive: 16% [at 44.1 µM]
O=C1NC2(CCN([S+](=O)([O-])c3cccc(C(F)(F)F)c3)CC2)Oc2ccccc21,"inconclusive: 11.2 µM [inhibitor, single point]",,
O=C(CC1N=C2c3ccccc3N=C(SCc3cccc(Cl)c3)N2C1=O)NCCc1ccccc1 (stereo not drawn),"inconclusive: 17.8 µM [inhibitor, single point]",,
CC1(c2ccccc2)N(Cc2ccccc2C#N)C(=O)OC12CCN(C(=O)COc1ccccc1)CC2 (stereo not drawn),"inconclusive: 1.41 µM [inhibitor, full curve]",,
CC(=O)NCCCC(=O)N1CCC2(CC1)CN(C(=O)N(C)C)Cc1ccccc1O2,,,inactive: -0.726%
Cc1oc(-c2ccc(C(=O)NCc3ccccc3Cl)cc2)nc1CN1CCc2ccccc21,"inconclusive: 10 µM [inhibitor, single point]",,
COc1ccc(C)cc1NC(=O)c1cc(S(=O)(=O)N2CCc3ccccc3C2)ccc1F,"inconclusive: 17.8 µM [inhibitor, single point]",,
Cc1ccccc1C(=O)N(C)C1CCCc2ccccc21 (stereo not drawn),"inconclusive: 8.91 µM [inhibitor, partial curve, poor fit]",,
Cc1nccn1CCC1CCN(c2nccc(-c3ccccn3)n2)CC1,"inconclusive: 10 µM [inhibitor, partial curve, poor fit]",,
CCCCN(C)CCNC(=O)CN1C(=O)CSc2ccc(S(=O)(=O)N3CCCCC3)cc21,"inconclusive: 5.62 µM [inhibitor, partial curve]",,
CCN1CCN(CCCNC(=O)Cn2c(-c3cccs3)cc3cc(F)ccc32)CC1,"inconclusive: 11.2 µM [inhibitor, single point]",,
CCOc1ccc(CCNC(=O)c2ccc3c(c2)N(Cc2ccccc2F)C(=O)c2ccccc2S3=O)cc1OCC (stereo not drawn),"inconclusive: 1.41 µM [inhibitor, full curve]",,
COCCn1c(=O)c2c(n1Cc1ccccc1)CN(C(=O)c1cccc(C#N)c1)CC2,,,inactive: 42.9% [at 44.1 µM]
O=C(NCc1ccc(F)cc1)C1CCc2nnc(C3CCN(C(=O)Nc4ccc(Cl)cc4)CC3)n21 (stereo not drawn),,,inactive: -16%
